The list shows a part of the results.
What follows are compounds tested on HepG2 (assay: cytotoxicity call (relative viability < 0.9)). Conditions: 10 µM.
In the case of `C[C@@H]1CCCCO[C@@H](CN(C)C(=O)C2CCCCC2)[C@@H](C)CN([C@H](C)CO)C(=O)c2cc(NC(=O)NC3CCCCC3)ccc2O1`, the cytotoxicity call is reported as “inactive”. `CN(C)CC(=O)N[C@@H]1CC[C@H](CCNC(=O)C2CCC2)O[C@@H]1CO` was tested, and the cytotoxicity call was “inactive”. `O=C(CCCCC(=O)N/N=C/c1cc[n+]([O-])cc1)NO` was tested, and the cytotoxicity call was “inactive”. In the case of `CC1OC(OCC2OC(Oc3c(-c4ccc(O)c(O)c4)oc4cc(O)cc(O)c4c3=O)C(O)C(O)C2O)C(O)C(O)C1O` (stereo not given), the cytotoxicity call is reported as “inactive”. `Cc1noc(C)c1NC(=O)Nc1ccc2c(c1)C(=O)N([C@H](C)CO)C[C@H](C)[C@@H](CN(C)C(=O)Nc1ccc3c(c1)OCO3)OCCCC[C@H](C)O2` was tested, and the cytotoxicity call was “inactive”. `N[C@@H](Cc1ccccc1F)C(=O)O` was tested, and the cytotoxicity call was “inactive”. `C[C@@H]1CN([C@H](C)CO)C(=O)c2cc(NC(=O)C3CCCCC3)ccc2O[C@@H](C)CCCCO[C@@H]1CN(C)C(=O)c1ccccc1` was tested, and the cytotoxicity call was “inactive”. With `O=C1[C@H](Cc2ccc(C(F)(F)F)cc2)CCn2cc(nn2)COC[C@@H]2CCCCN2C(=O)[C@H](Cc2ccc(C(F)(F)F)cc2)CCn2cc(nn2)COC[C@@H]2CCCCN12` the cytotoxicity call was “inactive”. `CCS(=O)(=O)N1CCc2ccc(N)cc2C1` was tested, and the cytotoxicity call was “inactive”. With `CNc1nc(SCC(N)=O)nc(N2CCOCC2)n1` the cytotoxicity call was “active”. In the case of `C[C@@H]1CN([C@@H](C)CO)C(=O)c2cc(NC(=O)Nc3ccc(C(F)(F)F)cc3)ccc2O[C@@H](C)CCCCO[C@@H]1CN(C)C`, the cytotoxicity call is reported as “inactive”. With `C[C@@H]1CCCCO[C@@H](CN(C)C(=O)Nc2cccc3ccccc23)[C@@H](C)CN([C@H](C)CO)C(=O)c2cc(NC(=O)Cc3ccccc3)ccc2O1` the cytotoxicity call was “inactive”. For `CN1C(=N)NC(=O)/C1=C/c1cccnc1`, the cytotoxicity call was “inactive”. For `COC(=O)OC[C@H]1O[C@@H](Oc2cc(C)cc(O)c2C(=O)CCc2ccc3occc3c2)[C@H](O)[C@@H](O)[C@@H]1O`, the cytotoxicity call was “inactive”. For `C[C@@H]1CN([C@H](C)CO)C(=O)c2cc(C#CC3(O)CCCC3)cnc2O[C@@H]1CN(C)C(=O)C1CCOCC1`, the cytotoxicity call was “inactive”. `COc1ccc(S(=O)(=O)N2C[C@@H](O)COC[C@H]3O[C@H](CC(=O)NCCCN(C)C)CC[C@@H]32)cc1` was tested, and the cytotoxicity call was “inactive”. For `Cc1noc(C)c1NC(=O)N(C)C[C@@H]1OCCCC[C@H](C)Oc2ccc(NS(=O)(=O)c3ccc(Cl)cc3)cc2C(=O)N([C@H](C)CO)C[C@@H]1C`, the cytotoxicity call was “inactive”. In the case of `Cc1ccc(S(=O)(=O)Nc2ccc3c(c2)CC(=O)N([C@@H](C)CO)C[C@@H](C)[C@@H](CN(C)C(=O)Nc2cccc4ccccc24)O3)cc1`, the cytotoxicity call is reported as “inactive”. In the case of `C[C@H]1CN([C@@H](C)CO)C(=O)c2cc(NS(=O)(=O)c3ccc(F)cc3)ccc2O[C@H]1CN(C)CC1CC1`, the cytotoxicity call is reported as “inactive”. `COc1ccc2c3c([nH]c2c1)[C@H](CO)N(C[C@]13CCN(CC1)CC1CCOCC1)S(=O)(=O)c1cn(cn1)C` was tested, and the cytotoxicity call was “inactive”. With `COc1cc2ccnc(CCCN)c2cc1OC` the cytotoxicity call was “inactive”. With `c1ccc([C@@H]2CNCCN2)cc1` the cytotoxicity call was “inactive”. For `C[C@@H]1CCCCO[C@@H](CN(C)C(=O)Nc2ccccc2)[C@H](C)CN([C@@H](C)CO)C(=O)c2cc(NC(=O)Nc3ccc4c(c3)OCO4)ccc2O1`, the cytotoxicity call was “inactive”. `CC(C)NC(=O)Nc1ccc2c(c1)CC(=O)N([C@@H](C)CO)C[C@@H](C)[C@@H](CN(C)C(=O)NC1CCCCC1)O2` was tested, and the cytotoxicity call was “inactive”. With `C[C@@H]1CCCCO[C@H](CN(C)CC2CC2)[C@H](C)CN([C@@H](C)CO)C(=O)c2cc(NS(=O)(=O)c3ccc(Cl)cc3)ccc2O1` the cytotoxicity call was “inactive”. In the case of `C[C@@H]1CN([C@@H](C)CO)C(=O)c2c(c3ccccc3n2C)-c2ccccc2CO[C@H]1CN(C)C(=O)Nc1ccc2c(c1)OCO2`, the cytotoxicity call is reported as “inactive”. In the case of `C[C@@H]1CCCCO[C@@H](CN(C)C(=O)c2ccccc2)[C@@H](C)CN([C@H](C)CO)C(=O)c2cc(NC(=O)Nc3ccc(C(F)(F)F)cc3)ccc2O1`, the cytotoxicity call is reported as “active”. For `NC(=O)NCC#Cc1ccc2c(c1)[C@]1(C(=O)N2)[C@H](C(=O)O)[C@H]2C(=O)O[C@H](c3ccccc3)[C@H](c3ccccc3)N2[C@@H]1c1ccc(OCCO)cc1`, the cytotoxicity call was “inactive”. With `CC(C)NC(=O)N(C)C[C@@H]1Oc2ccc(NC(=O)CCCN(C)C)cc2C(=O)N([C@@H](C)CO)C[C@H]1C` the cytotoxicity call was “inactive”. For `C[C@@H]1CCCCO[C@@H](CN(C)S(=O)(=O)c2ccccc2)[C@@H](C)CN([C@H](C)CO)C(=O)c2cc(NC(=O)Nc3ccccc3)ccc2O1`, the cytotoxicity call was “inactive”. `C[C@H](CO)N1C[C@H](C)[C@H](CN(C)S(=O)(=O)c2ccccc2)Oc2ncc(Br)cc2C1=O` was tested, and the cytotoxicity call was “inactive”. In the case of `CN1CCN(C(=O)C[C@@H]2CC[C@@H](NC(=O)Cc3ccccn3)[C@H](CO)O2)CC1`, the cytotoxicity call is reported as “inactive”. For `CC(C)N1C[C@@H](C)[C@H](CN(C)Cc2ccc(Oc3ccccc3)cc2)Oc2c(cccc2N(C)C(=O)c2ccncc2)C1=O`, the cytotoxicity call was “inactive”. In the case of `CC(C)(Sc1cc(C(C)(C)C)c(O)c(C(C)(C)C)c1)Sc1cc(C(C)(C)C)c(O)c(C(C)(C)C)c1`, the cytotoxicity call is reported as “inactive”. In the case of `C[C@@H]1CN([C@H](C)CO)C(=O)Cc2cc(NC(=O)CCC(F)(F)F)ccc2O[C@@H]1CN(C)C(=O)Nc1cccc2ccccc12`, the cytotoxicity call is reported as “inactive”. In the case of `O=C(C[C@@H]1C[C@@H]2c3cc(NC(=O)Cc4ccncc4)ccc3O[C@@H]2[C@@H](CO)O1)NCc1cccc(F)c1`, the cytotoxicity call is reported as “inactive”. For `CC[C@H]1OC(=O)C[C@@H](O)[C@H](C)[C@@H](O[C@@H]2O[C@H](C)[C@@H](O[C@H]3C[C@@](C)(O)[C@@H](O)[C@H](C)O3)[C@H](N(C)C)[C@H]2O)[C@@H](CC=O)C[C@@H](C)C(=O)/C=C/C(C)=C/[C@@H]1CO[C@@H]1O[C@H](C)[C@@H](O)[C@@H](OC)[C@H]1OC`, the cytotoxicity call was “inactive”. `Oc1cc2c(cc1O)C1c3ccc(O)c(O)c3OCC1(O)C2` (stereo not given) was tested, and the cytotoxicity call was “inactive”. For `C[C@H](CO)N1C[C@H](C)[C@H](CN(C)Cc2ccc(C(=O)O)cc2)Oc2ccc(NS(=O)(=O)c3ccccc3)cc2CC1=O`, the cytotoxicity call was “inactive”. `CC(C)CC#Cc1cnc2c(c1)C(=O)N([C@@H](C)CO)C[C@@H](C)[C@H](CN(C)S(=O)(=O)c1cn(C)cn1)O2` was tested, and the cytotoxicity call was “inactive”.

Reference: the antibiotic and cytotoxicity screens of Wong et al. (2023)
